Measured values: the supplement of paper PMC11417369
± gives the standard deviation of the averaged measurements. This is one part of the list.

System: PfAP2-I AP2 domain 3 (GST-tagged)
Assay: gcPBM binding intensity (ln(normalized median fluorescence intensity)); higher = stronger DNA binding
Method in brief: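 GST-tagged P. falciparum DNA-binding domains, expressed in E. coli (about 25 μg on average), were applied for 1 h to an Agilent 4 × 180k array of primer-extended double-stranded 36-bp intergenic genomic probes plus negative controls. The binding buffer was 1× PBS with 1% milk, 0.2 mg/ml BSA, 0.5% salmon testes DNA and 0.03% Triton X-100. Bound protein was detected with Alexa488 anti-GST antibody and scanned at 488 nm. Binding intensity is the highest Masliner-normalised natural-log median intensity across replicate spots of either probe orientation.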

Sequence	gcPBM binding intensity (ln)
ATAAAATAAAAGTGTACACAAGAAAATATGTTATGT [CACACA_site6033]	8.54 ± 0.53
TGTGCTATATTCATATGTACATATAATTATTATATA [XGTACX_site3549]	9.52 ± 0.57
AACATGAAAGATAGCAAAAAAAAAAAAAAAAAAAAA [TGCATGCA_negctrl_site607]	8.1 ± 0.89
AAAAAATAATAAATCACACATATTATATATATATAT [CACACA_site5838]	9.12 ± 0.4
CATATTAATATTATGGGTACATATAAATTTACATTC [XGTACX_site687]	7.77 ± 0.35
TCTTTTTTTATTTTATTTTTTTTTTTTAAATAATTC [TGCATGCA_negctrl_site372]	7.45 ± 0.67
ATTATAATATTGTTATGTACATAAAAATTATTGAAT [XGTACX_site4476]	7.9 ± 0.57
AAAACATAAATACATACACACATAATATATATTAAT [CACACA_site109]	7.62 ± 0.65
ACTTGACACGGACACACACACATATATAAAAAAAAA [CACACA_site4576]	8.29 ± 0.25
TTTTTTTATTATCATGCACACATTTTTTTTTTTTAC [CACACA_site2253]	8.88 ± 0.56
TCCTTTATTTTTAAATGTACAAATATTATCTCCTCA [XGTACX_site5856]	7.79 ± 0.44
ATAATAAAAATAAGAGAATAAAAATGCAATTTAATG [CACACA_negctrl_site878]	7.95 ± 0.47
TGATTCTTTTGTATCACACACACTTAGTTTAATTTT [CACACA_site2404]	7.7 ± 0.8
ATTGATCGGATAAAATGTACAAATATATATATATAT [XGTACX_site7345]	9.28 ± 0.32
ATTTATAATGTGTATACACACATATATAGATTTGCT [CACACA_site6440]	7.54 ± 0.48
AACTCACATAAATTCACACAAATGTATATTCATATA [CACACA_site4554]	7.62 ± 0.72
AAATTATAATATAATACACACATAAAAAAAAAATCA [CACACA_site3634]	7.76 ± 0.45
TATATATATATATATTGTACACATATATATTTACGA [XGTACX_site4791]	9.43 ± 0.69
ATATTTATATGAATCACACACAAAAAATATAGAGAT [CACACA_site7775]	7.88 ± 0.57
ACTGTGGGAATAACCACACACACACCCACATATATA [CACACA_site3542]	8.04 ± 0.58
TTATTATATAAATAAAAAAAAAAAAAAAAAAAAAAA [CACACA_negctrl_site1455]	8.17 ± 0.99
TATATACGCATGCGCACACACAAGTGGGAAATTTGG [CACACA_site1785]	8.19 ± 0.61

Sequence	gcPBM binding intensity (ln)
CATAAATACAAATATACACACATATATATATATATA [CACACA_site2633]	9.37 ± 0.32
AATATGTTTTTTAGATGTACAGATTAAATATTAAAA [XGTACX_site7308]	7.76 ± 0.29
AAATCACAAAAAAAAAAAAAAATATATATATATATA [CACACA_negctrl_site10]	9.41 ± 0.29
AAATAGTAAGAGATGGTGCGTTTCCTTTTTTTTTTT [GTGCAC_site9663]	9.56 ± 0.028
TTTAAAAATATTTCACGTACGCATTTTAAAAAGTAT [XGTACX_site8026]	8.09 ± 0.28
TTTTTTTCATATATATGTACATAATTATATATGCAT [XGTACX_site3257]	7.92 ± 0.47
TTAATTATATGGTAAACAAATAAATGTGAAAGGAAA [XGTACX_negctrl_site389]	7.96 ± 0.43
CGTGGGAGCAGACACACACACACACCCATATATATA [CACACA_site334]	8.24 ± 0.73
TATTTATAAATATACGCACACATTAATATATATATA [CACACA_site3969]	8.93 ± 0.21
GTTGGTAGGCGGTACGGTACACGTAGTATTTTTCTT [XGTACX_site4213]	7.62 ± 0.88
ATATTATTTATTTTTAAATTATATTGATTATTTTTT [CACACA_negctrl_site451]	7.18 ± 0.32
AGTATGTAAATGTGCCATATATATATTAAATACATA [CACACA_negctrl_site14]	8.53 ± 0.2
TAGAAATATATTTATTGTACATTGTATATATTATAT [XGTACX_site7584]	7.62 ± 0.43
TTGAAGTGTACTATTTTATATATATATATACATTTT [CACACA_negctrl_site224]	8.03 ± 0.26
TCTTTTTTTTTTACTAGTACTTAAAAAAAAAATATG [XGTACX_site4395]	7.87 ± 0.33
ATTATGTGCCAATACACACACACATCTATATTTATA [CACACA_site6359]	8.51 ± 0.5
TTTTAATTTTTAAGACGTACTATCATTTGATAATAA [XGTACX_site3942]	7.47 ± 0.36
TACGATGTTTTAAAATGTACATAAAAGTCACATAAG [XGTACX_site3297]	7.72 ± 0.38
TATGATAAATATGGAGCACACACACCGAAACATACA [CACACA_site8031]	8.28 ± 0.33
AAGTGTTCTTGTTATACACACACATATATATATATA [CACACA_site8251]	9.36 ± 0.48
TAGCATGATTTGCCTTGTACACAACCGTTTTAATAA [XGTACX_site7911]	7.89 ± 0.6
TATATTATATATATATGTACATATTATTATATCTAA [XGTACX_site3835]	7.75 ± 0.44

Sequence	gcPBM binding intensity (ln)
TTTTGTATTTTTCACACACACATAAGTAAACAATAA [CACACA_site1899]	8.18 ± 0.54
TAAATGAAAATATGTACACACTTGAAAATTTTTATG [CACACA_site5599]	7.84 ± 0.47
ATACAATAATATAAATGTACAAATTATATCTTCATT [XGTACX_site8994]	7.58 ± 0.35
AAATTAAATATTATATTAATTCTTAAATTTTTTTTT [CACACA_negctrl_site439]	7.01 ± 0.58
AAACATATGGTATTTAAACACACAAAAAAGAAAGAA [CACACA_site8239]	8.11 ± 0.65
ATGTTGTGGATATATACACACATACATATTTATATA [CACACA_site6857]	7.8 ± 0.57
TACAAGAACAAAAAATGTACGAAATAATTACAAATA [XGTACX_site5824]	7.63 ± 0.69
AATCTTTTTAAATCTTGATTAATTTCGGGTATATAT [TGCATGCA_negctrl_site107]	7.78 ± 0.81
AAAAAAAAAAAAAAAACACACAAACATCAAATTACT [CACACA_site6950]	8.73 ± 0.35
AAATTTAAAAATAAAGAACACACATATGTAAAATAT [CACACA_site9252]	7.91 ± 0.76
AATTTCAATTTCTGTTGTACACTTTTTAATAGTAAA [XGTACX_site4085]	8.13 ± 0.49
TATATACTATATATATGTACACAAAATTATTTTGAA [XGTACX_site8232]	7.91 ± 0.2
ATATGTAGTGTTATTTGTTCATTGTTTTAATTTTTA [CACACA_negctrl_site1394]	7.84 ± 0.61
TAATTATATAAATACACACACATACACCCAAATAAA [CACACA_site5819]	8.6 ± 0.13
GAAAAAAAAATACATACACACAATATATTTATTTAT [CACACA_site3124]	7.53 ± 0.45
TATTATATATAATATTGTACATTAAAATATTAAAGA [XGTACX_site3698]	7.78 ± 0.4
ATATGTATTAAGTGTACACATATAATGGGTTTTCTT [CACACA_site5328]	8.03 ± 0.57
GGAACGTTCATATTTCCACACACAAAAAATAAATAT [CACACA_site9101]	7.92 ± 0.61
TTTATTTTAAAATATAGTACGCAAATAAAAATAAAT [XGTACX_site7783]	8.34 ± 0.15
TATAAATTTGTTCAATGTACATGTAAAGATATAATC [XGTACX_site371]	8.04 ± 0.57
TGAAGCAAAAACAAAACACACATATAAATAAATAAA [CACACA_site3925]	7.89 ± 0.49
TTATTTTTTATAAAATGTACATATATTTTAAATATA [XGTACX_site4026]	7.93 ± 0.16

Sequence	gcPBM binding intensity (ln)
ACCAATCCAAAAGAATGTACCCATGTTTTAAAATAT [XGTACX_site2907]	7.93 ± 0.42
TTCGTATGCATGAAATGTACATGATATTATTATAAA [XGTACX_site4542]	7.87 ± 0.49
TTTTGTTAACATATAGAAAAGAACAAAGTTAAAAAG [XGTACX_negctrl_site462]	8 ± 0.61
TTAATTAAATATAGGGGTACATATTATATATGTTTT [XGTACX_site3677]	7.76 ± 0.42
ACGAAAAGATATATATGTACATATATTAAAAAAAAA [XGTACX_site1517]	7.92 ± 0.56
AATATGGGCATACATGTGCACTTTTTCCCGTGGTTT	9.56 ± 0.49
TTATATGCATATTTTTGTACACAACATTGTTGTATA [XGTACX_site8707]	8.02 ± 0.6
AAATATTTCTGCAAGGTGCACTTTATAAATCTTTGA	10.7 ± 0.59
AAGAAATTTATTTATTGTACAATATATAATTTGTTT [XGTACX_site2478]	7.59 ± 0.38
ATGTATATTTTTATGTGTACGTAATAAAACATAATA [XGTACX_site7777]	8.33 ± 0.27
TTATTTTTTTTTAGAGCACACATTTTTAATAAGGTA [CACACA_site2133]	9.54 ± 0.2
TGTACAAATATGTACACACACACATATTTATTTATA [CACACA_site6419]	8 ± 0.3
AAAAAACAAAAAAATACACACATAAAAAGGTTTTAG [CACACA_site3584]	7.86 ± 0.61
TAAACATAACAAAGGAGTACAAAACTTGATCAGTTC [XGTACX_site3114]	7.69 ± 0.64
AAATATGTCAAATATACACACATAATAAATATAATA [CACACA_site2310]	7.97 ± 0.12
TTATAAGATGATTATAAAATCAAATTCATTCTTTTA [CACACA_negctrl_site1338]	7.13 ± 0.42
TATGTATAAAAATAATGTACAAAATATATTATATGT [XGTACX_site2794]	7.77 ± 0.55
ATACTATAATAATACACACTCATTAGATATATAAAG [CACACA_site7787]	7.83 ± 0.51
AATAAATGGAAAAGGTGTACACAAAAAAAAGGGAAA [XGTACX_site4956]	8.66 ± 0.7
AAAAAAAAAAAAAAAACATGCAGTTAGTGGTTTTTT [TGCATGCA_site243]	8.62 ± 0.45
CTTATATTTGGACACACACACAATAAAATGAAAAAA [CACACA_site6614]	8.17 ± 0.35
AAATCTTCATAATAAAGTACTTAACTCTTGGTGTTA [XGTACX_site6112]	7.43 ± 0.28
